Measurements reported in PubChem BioAssay AID1963439 (Molecular Pharmacology Branch, DTP, NCI, 2024).
Not every entry of the source has a single result; some have several. They are shown here; other results are not. An entry can have further records. Values given together are repeated measurements (runs, samples, wells, individuals or studies). Dates in brackets are months of testing. Marks such as (2×) give the number of equal values in this list.

System: NCI-H196 complex spheroids with HUVEC/MSC, growth % T/C
Experiment: Anticancer human tumor NCI-H196 cell line growth inhibition [Asc];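 further: spheroids exposed to compound for 7 days before measurement; 100% = DMSO vehicle control wells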
Settings: stronger effect = lower value
Description: Multicellular complex tumor spheroid response to apoptosis pathway targeting inhibitors Alrizomadlin, Pelcitoclax, and Dasminapant in combination with a variety of drugs and investigational agents in selected tumor cell lines
The MDM2 inhibitor alrizomadlin, the Bcl-2/Bcl-xL inhibitor pelcitoclax, and the IAPs inhibitor dasminapant were evaluated both individually and in combination with standard of care and investigational anticancer small molecules within a complex spheroid model of solid tumors. . Complex spheroids include a stromal component modeled by human endothelial cells (HUVEC) and fibroblasts modeled by human mesenchymal stem cells (MSCs). The concentration ranges selected for each drug and investigational agent were based upon clinically achievable concentrations if the clinical Cmax of the agent was known.
Compounds. […] If the clinical Cmax for an agent had not been determined, the highest concentration tested was 10 microM. […]

With `C=C(F)C(=O)N1CCN(c2nc(OCC3CCCN3C)nc3c2CCN(c2cccc4cccc(Cl)c24)C3)CC1CC#N` (configuration not stated) the viability, T/C (compound alone 10 µM) was 94.5%, 84.3% [2022-09] and 1.85% [2022-10].
For `CCN1C(C(=O)NC23CCC(C(=O)O)(CC2)CC3)C(c2cccc(Cl)c2F)C2(C(=O)Nc3cc(Cl)ccc32)C12CCCCC2` (configuration not stated), the viability, T/C (compound alone 3 µM) was 112, 131, 120 (3×), 113, 111 (2×), 121, 124, 109, 115, 114, 105% [2022-09] and 119% [2022-10].
